We go through 70 compounds from PubChem BioAssay AID488969 (Vanderbilt High Throughput Screening Facility, 2010).

Whole data set: some 110,000 compounds, median “z-score” near -0.1, cut for the highest 2% near 2. The list shows a part of the results.

The target in this experiment is Metabotropic glutamate receptor 8 (Rattus norvegicus) (UniProt P70579). The experiment can be described thus: mGluR8 Gi/Go-coupled signaling modulation – cell-based, rat, thallium flux, HTS, primary screen (AID 488969). Particulars: HEK293 rat mGluR8, GIRK (G protein-gated inwardly rectifying potassium channel) thallium flux, FluoZin2; at 10 µM; stronger effect = higher value; submaximal glutamate (EC20) added with thallium.
Chain of UniProt P70579 (P70579 whole entry, looked up): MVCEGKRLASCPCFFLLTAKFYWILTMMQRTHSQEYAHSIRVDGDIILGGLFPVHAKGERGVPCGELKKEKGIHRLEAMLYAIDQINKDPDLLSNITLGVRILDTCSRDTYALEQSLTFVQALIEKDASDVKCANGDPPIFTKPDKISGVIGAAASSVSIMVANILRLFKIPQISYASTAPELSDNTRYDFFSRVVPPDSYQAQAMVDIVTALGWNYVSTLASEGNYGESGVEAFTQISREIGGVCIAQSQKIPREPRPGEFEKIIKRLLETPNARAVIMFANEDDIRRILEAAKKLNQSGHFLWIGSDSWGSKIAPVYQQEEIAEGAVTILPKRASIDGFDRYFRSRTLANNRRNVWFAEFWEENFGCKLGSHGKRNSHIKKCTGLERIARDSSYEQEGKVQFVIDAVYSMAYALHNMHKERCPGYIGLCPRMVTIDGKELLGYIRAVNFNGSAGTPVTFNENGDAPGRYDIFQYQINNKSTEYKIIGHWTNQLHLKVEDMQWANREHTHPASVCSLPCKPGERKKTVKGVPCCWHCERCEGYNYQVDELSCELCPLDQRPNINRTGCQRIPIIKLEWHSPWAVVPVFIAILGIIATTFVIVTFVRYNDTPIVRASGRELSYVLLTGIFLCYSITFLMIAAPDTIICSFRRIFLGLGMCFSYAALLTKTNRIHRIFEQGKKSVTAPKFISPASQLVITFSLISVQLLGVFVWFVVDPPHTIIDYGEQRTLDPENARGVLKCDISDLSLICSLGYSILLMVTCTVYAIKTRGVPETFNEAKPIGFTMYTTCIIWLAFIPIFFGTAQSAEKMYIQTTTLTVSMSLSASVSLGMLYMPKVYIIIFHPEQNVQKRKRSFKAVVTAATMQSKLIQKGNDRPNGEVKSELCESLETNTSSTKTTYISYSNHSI
`CC(C)OC(=O)CSc1nnc(Cc2ccccc2)n1C` showed a z-score of 0.089.

`COc1ccc(S(=O)(=O)NCC2CCC(C(=O)N3CCC4(CC3)OCCO4)CC2)cc1` (stereo not given): the z-score was found to be 0.151.

Consider `Cc1cccc(Nc2ncnc3nc[nH]c23)c1`, for which the z-score is -1.32. Regarding `Cc1ccc(-n2ccc(=O)c(-c3ccnc(SCc4cccc(Cl)c4)n3)n2)cc1`, the z-score is -0.44. In turn, `O=C1C(C=NCCCn2ccnc2)=C(O)c2ccccc21` gave a z-score of 0.584. Take `O=C(C1CC1)N1CCc2cc(S(=O)(=O)NCC3COc4ccccc4O3)ccc21` (stereo not given): the z-score was -0.226. The compound `COc1ccccc1CN1C(=S)SC(C)(C)C1NO` (stereo not given) registered a z-score of 0.222. `CCCOc1cccc(C2C(C(=O)c3ccco3)=C(O)C(=O)N2CCN(CC)CC)c1` (stereo not given): the z-score is -0.0948.

Turning to `COc1ccc(Cc2noc(-c3ccc(C)cc3)n2)cc1`, the z-score is -0.249.

In the case of `O=C(/C=C/c1cccc([N+](=O)[O-])c1)Nc1ccc(NC(=O)c2cccs2)cc1`, the z-score is -0.0819.

The compound `CCOc1ccc(C(=O)CCNC(Cc2cnc[nH]2)C(=O)O)cc1` (stereo not given) had a z-score of 0.0942. `CC1CCCCC12NC(=O)N(CC(=O)NC(=O)NCc1ccco1)C2=O` (stereo not given) came in with a z-score of 0.146. In the case of `COc1ccc(OC)c(NS(=O)(=O)c2ccc3c(c2)CCC(=O)N3)c1`, the z-score is 0.486.

`Cc1ccc(F)cc1NC(=O)c1ccc2c(c1)OCO2`: the z-score was -1.03. On to `COc1ccc(CC(=O)NNC(=O)CSc2nnc(C)n2-c2ccccc2)cc1`, for which the z-score was -0.315. In the case of `O=C(NCC1CCCO1)c1ccc(C(=O)NCC2CCCO2)cc1` (stereo not given), the z-score is -0.42. `CCOC(=O)c1[nH]c(COC(=O)C2CC(=O)N(Cc3ccccc3)C2)c(C(=O)OCC)c1C` (stereo not given) gave a z-score of 0.937. `COc1cccc(-c2csc(N3CCN(C(=O)Nc4ccccc4OC)CC3)n2)c1`: the z-score was -1.93. For `CN(C(=O)COC(=O)CNC(=O)c1sc2ccccc2c1Cl)c1ccccc1` the value was -0.854. In the case of `CC1CCN(C(=O)CSc2nnc(-c3cccnc3)n2C2CCCCC2)CC1`, the z-score is -0.0482. Turning to `CCC(NS(=O)(=O)c1ccc(C)cc1)C(=O)Nc1ccc(NC(C)=O)cc1` (stereo not given), the z-score was -0.511. For `c1ccc(-c2nc(-c3cccnc3)n[nH]2)cc1` the value was -0.151. Next, `O=C1COc2ccc(C(=O)CSc3nnnn3-c3ccccc3)cc2N1`: -0.145; `O=c1c2ccccc2cnn1Cc1n[nH]c(=S)n1-c1cc(Cl)cc(Cl)c1`: -0.202; `CCOCC(=O)Nc1c(C(=O)OCC)oc2ccccc12`: -0.215. For `CC(C)CC(=O)Nc1cccc(-c2cn3ccsc3n2)c1` the value was -0.363. Consider `COC(=O)c1cccc(COC(=O)CNC(=O)c2ccco2)c1`, for which the z-score stood at 0.209. Next, `CCc1nc(-c2ccccc2)cc(=O)[nH]1`: 0.128; `CCOC(=O)c1cc(-c2nnc(-c3cc(OC)c(OC)c(OC)c3)o2)c(C)nc1C`: -1.54. With `CC(C)OCC(O)CN1CCN(CC(O)COc2ccc3c(c2)OCO3)CC1` (stereo not given), the z-score is -0.199.

For `CCCOc1ccc(N2C(=O)CC(N(Cc3ccc(S(N)(=O)=O)cc3)C(=O)CC)C2=O)cc1` (stereo not given), the z-score is -0.33. `O=C(NC(NNc1ccc([N+](=O)[O-])cc1)(C(F)(F)F)C(F)(F)F)c1ccc(F)cc1` had a z-score of 0.544.

`COCCCNC(=S)NC(=O)c1ccc(C)cc1` returned a z-score of 0.374. On to `COc1cc(OC)cc(-n2nnnc2SCC(=O)Nc2nc3c(s2)CCCC3)c1`, for which the z-score is -0.0609. For `Brc1ccc(-n2c(SCc3nc4ccccc4[nH]3)nnc2-c2ccncc2)cc1`, the z-score was -0.268. In the case of `COc1cc(C(=O)NCC(C)C)cc(OC)c1OC`, the z-score turned out to be 0.133. Compound `N=C1/C(=C\c2ccc(-c3cccc(Cl)c3)o2)C(=O)N=C2SC=C(c3ccccc3)N12` returned a z-score of 1.17.

Consider `C=CCC1(O)C(=O)Nc2ccccc21` (stereo not given), for which the z-score amounted to 0.132.

Turning to `COc1cccc(CNC(=O)CCS(=O)(=O)c2cccs2)c1`, the z-score was -0.296. Next, `O=C(c1cccs1)N1CCN(c2ncccn2)CC1`: 0.404; `Cc1ccc(-c2nnc(SCC(=O)NNC(=O)COc3cccc(C)c3)n2C)cc1`: -0.489; `COc1ccccc1-n1cnnc1SCC(=O)c1ccc[nH]1`: -0.135. As for `O=C(CSc1n[nH]c(-c2cccs2)n1)N1CCCc2ccccc21`, the z-score was -0.328. `Cc1ccc(CNS(=O)(=O)NCc2ccccc2)cc1`: the z-score was -0.102. For `O=C(Cn1cnc2ccccc2c1=O)Nc1nnc(C2CC2)s1` the value was -0.0222; for `CCOC(=O)CSC1=C(C#N)C(c2ccc(Cl)cc2)CC(=O)N1` (stereo not given), -0.248; for `O=C(COC(=O)C1(c2ccccc2F)CCCC1)N1CCOCC1`, 0.0595. Next, `Cc1cc(/C=N/n2cnnc2)c(O)c([N+](=O)[O-])c1`: -0.354. For the compound `COc1cccc(C(=O)OCn2nnc3ccccc3c2=O)c1`, the z-score was -0.0785. Compound `CS(=O)(=O)c1ccc2nc(NC(=O)CCC(=O)c3cccs3)sc2c1` had a z-score of 1.3. Regarding `COc1ccc(CCNC(=O)c2cc(-c3cc(C)ccc3O)n[nH]2)cc1OC`, the z-score is -0.296. In the case of `CC1Cc2cc(/C(O)=C3/C(=O)C(=O)N(CCCn4ccnc4)C3c3ccncc3)ccc2O1` (stereo not given), the z-score was -0.018. `COc1ccc(CN(CCCN2CCOCC2)C(=O)Nc2cccc(Cl)c2)cc1OC`: the z-score is -0.305. For `Cc1ccc2nc(-c3ccccc3)c(NC(=O)c3ccco3)n2c1` the value was 0.31. `COC(=O)CSc1nc(-c2ccc(C)cc2)c2c(c1C#N)CCCC2` gave a z-score of 0.0112. Regarding `O=C(NCc1cccs1)C1CCN(S(=O)(=O)c2cccc3cccnc23)CC1`, the z-score was -0.219. Take `Cc1cc(-c2nnc(SCC(=O)c3ccc4c(c3)OCCO4)o2)no1`: the z-score was determined as 0.263.

For the compound `O=C(c1cnn2c(C(F)(F)F)cc(-c3ccc(Br)cc3)nc12)N1CCOCC1`, the z-score is -1.01. Next, `Cc1cccc(OC(=O)n2c(=S)oc3cc(Cl)ccc32)c1`: 0.209; `CC(Oc1ccccc1)C(=O)Nc1ccc(C(N)=O)cc1` (stereo not given): 0.297. With `O=C(CSc1ncn[nH]1)N1CCN(S(=O)(=O)c2ccc(Cl)cc2)CC1`, the z-score was -0.0408.

As to `C=CCn1c(SCC(=O)Nc2ccc(NC(=O)c3ccco3)c(OC)c2)nnc1-c1ccncc1`, the z-score was -0.214.

Turning to `CN(c1ccc(C(=O)N2CCN(Cc3ccc4c(c3)OCO4)CC2)cc1)S(=O)(=O)c1ccccc1`, the z-score is -0.273. `Cc1ccccc1NC(=O)Cn1c(NCC(C)O)nc2ccccc21` (stereo not given) had a z-score of 0.126.

`Cc1ccc(-n2nnnc2SCC(=O)c2cc(C)n(-c3cc(C)on3)c2C)cc1` came in with a z-score of 0.105. For `CNc1nc(SC)nc2ccsc12` the value was -0.136. In the case of `Clc1ccc(Cl)c2sc(N3CCOCC3)nc12`, the z-score was -0.141.

As for `O=[N+]([O-])c1cc(F)c(N2CCCCC2)cc1N1CCOCC1`, the z-score was -0.193.

As for `CCN(CC)C(=O)CSc1nnc(-c2ccc(O)cc2)n1CC1CCCO1` (stereo not given), the z-score worked out at 0.0105. As for `O=C(NCCO)c1cc2ccccc2c(=O)s1`, the z-score was determined as 0.822.
